# Data from PubChem BioAssay AID1508642 (National Center for Advancing Translational Sciences (NCATS), 2021).
# The whole screen tested about 43,000 compounds, of which about 200 (0.47%) were called active. Another 12% or so got no clear call; they are omitted. Calls follow the shape of the dose curve; as a rule, active = well fitted cell-killing curve with a large enough effect; inconclusive = small, poorly fitted or top-dose-only effect, or effect the other way; inactive = flat fitted curve, though single readings scatter. The list shows a part of the results.
# Assay: Cell viability qHTS assay in S16 Pmp22-F2sN cells; also: nearly all actives have a fitted effect of over 65% in size
# Conditions: S16 Pmp22-F2sN Schwann cells (luciferase reporters placed in the Pmp22 gene) viability, CellTiter-Glo, 24 h; series mostly up to 57.5 µM; activity change, negative = cytotoxicity: at the top concentration
# In short: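 CellTiter-Glo counter-screen, qHTS, 1536-well. Cells: S16(c9) Pmp22-F2sN, 500-1,000/well in DMEM + 10% FBS. Cpd 23 nL pin transfer, 24 h, 37C/5% CO2. Read: luminescence, CCD imager.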
# % is scaled to controls: 0 for no effect and ±100 for the full control effect; potency is read from the fitted curve at half-maximal effect.
Structure (SMILES),"activity change, negative = cytotoxicity",Potency
CCOc1ccc(NC(=O)Cn2c(=O)n(-c3ccc(C)cc3)c(=O)c3cc(OC)c(OC)cc32)cc1,inactive: 3.02%,
CCOc1ccc(NC(=O)CCS(=O)(=O)c2cc3c4c(c2)CCN4C(=O)CC3)cc1,inactive: -17.2%,
CCc1ccccc1NC(=O)CCc1c(C)nc2cc(-c3ccccc3)nn2c1C,inactive: 2.8%,
CCOC(=O)c1cc2c(=O)n3ccccc3nc2n(CC(C)C)c1=NC(=O)C(C)Oc1ccccc1 (stereo not given),inactive: -17%,
CC(=O)Nc1ccc(NCc2nnc3n2CCCCC3)cc1,inactive: 11.4%,
O=C(NC1CC(=O)N(c2ccc(Cl)cc2)C1)C(=O)c1c[nH]c2ccccc12 (stereo not given),inactive: 1.19%,
Cc1ccccc1NC(=O)Cn1c(=O)n(CCCCCC(=O)NCc2ccc3c(c2)OCO3)c(=O)c2sccc21,inactive: -5.27%,
Cc1c(Cl)cccc1NC(=O)CSc1nc(=O)n(CCN2CCOCC2)c2c1CCC2,inactive: -3.57%,
CCOc1ccc(NC(=O)c2sc3nc(-c4ccc(OC)cc4)cn3c2C)cc1,inactive: 2.22%,
COc1ccc(-n2ccn(CC(=O)Nc3ccccc3C(F)(F)F)c(=O)c2=O)cc1OC,inactive: -23.5%,
COc1cc(NC(=O)C2CCCN(S(=O)(=O)c3cn(C)cn3)C2)cc(OC)c1 (stereo not given),inactive: -1.91%,
COc1ccc(-c2nsc(NC(=O)c3ccccc3Br)n2)cc1,inactive: 3.23%,
CCc1cccc2c(-c3ccccc3)nc(SCC(=O)Nc3ccc(OC)cc3)nc12,inactive: -5.47%,
N#Cc1ccccc1Cn1c(SCC(=O)NCc2ccccc2)nc2ccccc21,inactive: 12.9%,
CC(C)N(Cc1ccccc1)S(=O)(=O)c1ccc(N2CCCCS2(=O)=O)cc1,inactive: 4.73%,
Cc1cc2nn(-c3ccccc3)nc2cc1NC(=O)Cc1ccc(Cl)cc1,inactive: 0.956%,
CN(C)S(=O)(=O)c1ccc(C(=O)N(Cc2cccnc2)c2nc3c(F)cc(F)cc3s2)cc1,inactive: 18.7%,
O=C(Cn1c(=O)c2cccn2c2ccc(F)cc21)NCc1cccc(Cl)c1,inactive: 14.2%,
Cc1cn2c(=O)cc(COc3ccc(C(C)(C)C)cc3)nc2s1,inactive: -11%,
CC(C)CCn1c(SCc2c(F)cccc2Cl)nc2ccsc2c1=O,inactive: -0.873%,

Structure (SMILES),"activity change, negative = cytotoxicity",Potency
CC(C)NC(=O)CCSc1nc(-c2ccc3c(c2)OCO3)cc(C(F)(F)F)n1,inactive: 7.08%,
Cc1cccc(C)c1NC(=O)CSc1nc(-c2cccs2)cc(C(F)(F)F)n1,inactive: 9.17%,
CCOc1ccccc1N(CC)C(=O)c1ccc2c(=O)n3c(nc2c1)CCCCC3,inactive: -7.83%,
O=C(Nc1ccc(F)c(Cl)c1)C1CCCN(S(=O)(=O)c2cccc3nsnc23)C1 (stereo not given),inactive: -19.8%,
COc1cc(NC(=O)Cn2c(-c3ccccc3)cc(C(C)=O)c2C)cc(OC)c1,inactive: 10.6%,
COC(=O)c1ccc2c(c1)sc(=NC(=O)c1ccc(S(=O)(=O)N3CCCCC3)cc1)n2C,inactive: 6.22%,
COc1ccc(-n2nc(C(=O)NCCc3ccc(Cl)cc3)c3c4ccccc4n(C)c3c2=O)cc1,inactive: 2.56%,
COc1ccc(C2c3c(-c4ccccc4)n[nH]c3C(=O)N2c2ccc(C(=O)O)cc2)c(OC)c1 (stereo not given),inactive: 2.12%,
Cc1ccc(NC(=O)Cn2c(=O)n(CCC(=O)N3CCc4ccccc4C3)c(=O)c3ccccc32)c(C)c1,inactive: 6.63%,
Cc1ccc(-c2c(CN3CCN(c4cccc(C)c4C)CC3)csc2C)cc1,inactive: -21.2%,
Cc1ccccc1NC(=O)Cn1c(=O)n(CCC(=O)N2CCc3ccccc3C2)c(=O)c2ccccc21,inactive: 17.2%,
CCC1CN(C(=O)N2CCC(C(=O)NCCCc3ccccc3)CC2)c2cc(C)ccc2O1 (stereo not given),inactive: -26%,
Cc1cccc(NC(=O)c2cccc(N3CCCS3(=O)=O)c2)c1,inactive: 11.6%,
O=C(COc1ccc(F)cc1)Nc1ccc(OCc2cc(=O)n3ccsc3n2)cc1,inactive: 9.23%,
CCCc1cnc2c(c1SCC(=O)Nc1ccc([N+](=O)[O-])cc1)c(=O)n(C)c(=O)n2C,inactive: -14.3%,
Cc1ccc(C2CC(=O)n3nc(-c4ccc(F)cc4)nc3S2)cc1 (stereo not given),inactive: 9.06%,
Cc1ccc(Cl)cc1NC(=O)c1sc2nc(C)c(C)c(C)c2c1N,inactive: 3.04%,
COc1ccc(NC(=O)CCS(=O)(=O)c2cc3c(cc2C)NC(=O)CO3)cc1Cl,inactive: -2.31%,
Cc1ccc(C)c(NC(=O)c2cnn(-c3ccc(F)cc3F)c2C2CCNCC2)c1,inactive: 6.01%,
CCOC(=O)c1ccc(NC(=O)CN2C(=O)C(C)(C)c3ccccc32)cc1,inactive: 5.62%,

Structure (SMILES),"activity change, negative = cytotoxicity",Potency
Cc1ccc(Nc2ccc(N3CCN(C(=O)c4cccc([N+](=O)[O-])c4)CC3)nn2)cc1,inactive: -18.6%,
O=C(CSc1ncc2c(n1)-c1ccccc1N(Cc1ccc(Cl)cc1)S2(=O)=O)c1ccc(Cl)cc1,inactive: -1.87%,
CCCC12CN3CC(CCC)(CN(C1)C3c1ccc(OCc3ccccc3)cc1)C2=O (stereo not given),inactive: 4.48%,
Cc1cccc(C)c1NC(=O)CCSc1nc(-c2ccc3c(c2)OCO3)cc(C(F)(F)F)n1,inactive: -5.51%,
Cc1cc(O)c(C(c2ccccc2)N2CCC(C)CC2)c(=O)n1Cc1ccco1 (stereo not given),inactive: -8.36%,
Cc1cn2c(=O)cc(COc3ccc(NC(=O)c4ccc(C(C)(C)C)cc4)cc3)nc2s1,inactive: 1.54%,
Cc1cccc(NC(=O)C2CCCN2S(=O)(=O)c2cccc3nsnc23)c1C (stereo not given),inactive: -0.908%,
CCN(C(=O)c1sc2nc3n(c(=O)c2c1C)CCCC3)c1ccccc1F,inactive: -14.7%,
Cc1ccc(CCNC(=O)c2cc(-c3ccccc3)n[nH]2)cc1,inactive: 8.15%,
Brc1cccc(-c2nnn3c2nc(NC2CCCCC2)c2ccccc23)c1,inactive: 21.7%,
C=Cc1ccc(CN2C(=O)N(c3ccc(C)c(C)c3)S(=O)(=O)c3ccccc32)cc1,inactive: 0.533%,
CCOc1ccc(NC(=O)c2cc3cc4ccc(C)cc4nc3o2)cc1,inactive: 14.6%,
COc1ccc2nc3sc(C(=O)NCCc4ccc(Cl)cc4)cc3cc2c1,inactive: 9.4%,
CCS(=O)(=O)c1ncc(Cl)c(C(=O)Nc2ccc(S(=O)(=O)N(C)c3ccccc3)cc2)n1,,active: 4.47 µM
CC1CCCCN1CCNC(=O)c1ccc(Cn2c(SCc3ccccc3)nc3cccnc32)cc1 (stereo not given),inactive: -21.2%,
Cc1ccc(C)c(NC(=O)Nc2cc3c(cc2N2CCCCC2)n(C)c(=O)n3C)c1,inactive: -22.9%,
COc1cc(OC)c(NC(=O)C2=C(C)C(=O)OC23CCN(C(C)=O)CC3)cc1Cl,inactive: -7.37%,
Cc1ccc(CSc2nc3cccnc3n2Cc2ccc(C(=O)NC3CC3)cc2)cc1,inactive: -2.03%,
Cc1ccc(-n2ncc3c(=O)n(Cc4cccc(Cl)c4)cnc32)cc1C,inactive: 2.85%,
O=C(NCc1ccccc1)c1cccn1-c1nnc(N2CCCCC2)s1,inactive: 15.7%,
